Source: the RNAGym collection of RNA variant scans (doi:10.7554/elife.90254)
The source gives no read counts; variants with many changes may rest on few reads.

B1: LINE1-mini (parent)
chain: GGCAGAGCUCAACACAGCGUGGCAAAGUGGCUGUGGCUAGACUGCC

Variants of: B1
Experiment: self-cleavage, relative activity (ratio to wild type); higher = more cleavage; in vitro, sequencing; the parent is a self-cleaving ribozyme

Variant	self-cleavage
G2A G5U G7A G22A	1.08
G2A G5U U32G	0.21
G2A G7A A11C G30U	0.03
G2A G7A A12C C15U C31A G33U C45A	0.14
G2A G7A A14C G21U G35U C46U	0.07
G2A G7A A24C G27C U28A A39U	0.04
G2A G7A A26C U28G G44U	0.37
G2A G7A C8A A11U G35C	0.04
G2A G7A C8A A39U	0.12
G2A G7A C8U C23U A24U U32G U38C	0.55
G2A G7A C18G G27A C31A	0.1
G2A G7A G40U C46G	0.87
G2A G7A U9A A39C C45U	0.49
G2A G7A U38A	0.16
G2A G7C A11C C23A G35U	0.02
G2A G7C A11U U32G G35U	0.05
G2A G7C C8U C10U G33U G40U	0.08
G2A G7C C23A C31A C42A	0.03
G2A G7C C37A U38A	0.24
G2A G7C G29A G30A A39G	0.13
G2A G7C G30A	0.65
G2A G7C G33U U38A	0.14
G2A G7U A14C G19A	0.27
G2A G7U A14U G19U G22U	0.41

Variant	self-cleavage
G2A G7U C8G G21C C42G	0.45
G2A G7U C10U A39G	0.01
G2A G7U C18A U20C G29U C42U	0.06
G2A G7U G22A U28G G40A	0.18
G2A G7U G27C	0.18
G2A G17A A26C	0.57
G2A G17A G35C	0.32
G2A G17C U28G C46U	0.11
G2A G17U A24G G40A	0.2
G2A G17U C42U	0.14
G2A G17U G21C	0.22
G2A G19A G21C A25G A26G	1.04
G2A G19A G40C C42A	0.06
G2A G19A U28C	0.2
G2A G19C U32A A39C	0.04
G2A G19U G22A G27C G33C G36C C37G G44A	0.04
G2A G19U G30A	0.25
G2A G19U U20C C23U	0.1
G2A G19U U38G A41U	0.03
G2A G21A G27C G33A C42A	0.05
G2A G21C C46A	0.47
G2A G21C U32G C45A	0.22
G2A G21U A25C G27U	0.6
G2A G21U A25G G27A C31G G35U C37A G40A	0.01

Variant	self-cleavage
G2A G21U C31A	0.07
G2A G21U C37U U38G	0.05
G2A G22A A24U	0.4
G2A G22A G40C	0.03
G2A G27C G44C	0.83
G2A G27C U28C	0.19
G2A G27U G40U	0.34
G2A G29A C31G C45A	0.23
G2A G29A G30U	0.57
G2A G29C G36A C45G	0.05
G2A G29U G36A C37U	0.95
G2A G30A U32G G33U G35C A39C	0.05
G2A G33U C46A	0
G2A G35U C45G	0.03
G2A G35U U43G	0.14
G2A G36A A39G C42A	0.1
G2A G36U A39C	0.03
G2A G40A G44U C46U	0.36
G2A G40C A41U C46A	0.08
G2A G44A C45U	0.13
G2A G44C C45U C46A	0.02
G2A U9A A14C C18A G22A	0.07
G2A U9A A14U	0.18
G2A U9A C10A G40U C46A	0.09

Variant	self-cleavage
G2A U9A C15A G35A	0.5
G2A U9A G22C	0.21
G2A U9A U43G	0.34
G2A U9C A11C A25C	0.02
G2A U9C A16C C23G	0.04
G2A U9C C10A C45U	0
G2A U9C G21U	0.06
G2A U9G A16G A41C	0.13
G2A U9G C13U	0.21
G2A U9G C15A G22C G40A	0.06
G2A U20A A26C G44U	1.04
G2A U20A U34G	0.11
G2A U20C A24G C31G A41C	0.1
G2A U20G A26C	0.1
G2A U20G C31A C37A U38C	0.01
G2A U20G G21U U32G A39U C46G	0.21
G2A U28A G36A	0.61
G2A U28C G30C	1.1
G2A U28C G35U	0.04
G2A U32C G40A	0.02
G2A U32G C42A	0.19
G2A U34A C45A	0.05
G2A U34G C46U	0.24
G2A U34G U43A	0.06

Variant	self-cleavage
G2C A4C A25G U28C G29U	0.2
G2C A4C C10A C18G G22A C31A G33U	0.01
G2C A4C C10G G21C	0.03
G2C A4C C13U	0.11
G2C A4C G5A G7C G30A	1.1
G2C A4G G17A G27C G33U	0.07
G2C A4U A12U C13G G40A	0.21
G2C A4U C15U G17C	0.1
G2C A4U C23A A26C U28C C42U	0.07
G2C A4U G7A U34C	0.43
G2C A4U U28G	0.02
G2C A4U U32A	0.04
G2C A6C A11U U43C	0.03
G2C A6C A25U G30A C45A	0.07
G2C A6C G19C	0.06
G2C A6G C8U G33U U38G	0.03
G2C A6G U9C G17C G22A	0.01
G2C A6U A12G C23U C37U	0.21
G2C A6U A14U A16C	0.3
G2C A6U A39G	0.08
G2C A6U G19C A39U	0.04
G2C A6U G22C C23U A26C C37G A41G	0.17
G2C A11C C31U	0.03
G2C A11C G22U G35C	0.02

Variant	self-cleavage
G2C A11C G29A	0.01
G2C A11C G36U A39G	0.01
G2C A11C G44U	0.02
G2C A11G C18U G30A U43A	0.01
G2C A11G G22U G36U U43C	0
G2C A11G U20C	0.01
G2C A11U A12U U43A G44C	0.03
G2C A11U G27U G40U	0
G2C A12C A16G C23A C37G	0.02
G2C A12C C18A A25G C45G	0.01
G2C A12C G17C G30A	0
G2C A12G A24U A39G G44C	0.02
G2C A12G C13G G17A A39U	0.03
G2C A12G C15U C18G G33U A39U	0.07
G2C A12G C18G G22A	0
G2C A12G C37U	0.03
G2C A12G G22C U28G C42U	0.02
G2C A12G G22U U38G	0.04
G2C A12G G30U G40U	0.38
G2C A12G G36C G44C	0.06
G2C A12U C23A	0.03
G2C A12U C23U	0.05
G2C A12U U20A C37A	0.02
G2C A14C C18A	0.07

Variant	self-cleavage
G2C A14C G33A	0.22
G2C A14C U32A G33U U34C C37A	0.02
G2C A14U A26C G30U G36U C37G	0.08
G2C A14U C15A A26U G27A G29C G36A	0.1
G2C A14U C15A G22A A41U	0.09
G2C A14U G29U G36C C37A U38C	0.08
G2C A16C U34C	0.14
G2C A16G G19A G22C G36A	0.02
G2C A16G G21A C23A G35A C37U	0.04
G2C A16G G21C G30A	0.53
G2C A16U A26C	0.03
G2C A16U C46U	0.09
G2C A24G G35U A41U	0
G2C A24G G36A	0.12
G2C A24U G27A U34C C46A	0.08
G2C A24U G30U U32G	0.04
G2C A25C U38G G40A	0.04
G2C A25G U32A C42G G44C	0.01
G2C A25U C31U	0.12
G2C A25U U28A	0.05
G2C A26C G29U	0.07
G2C A26G G36U	0.09
G2C A26U G44C	0.14
